From patent US20220049016A1 (ZYMEDI, published 2022) come the findings set out here.

As usually defined, the Kd is the equilibrium constant for the complex coming apart. One may read the koff as the first-order rate constant of dissociation. A higher koff goes with fast dissociation. As a reminder, the kon is a measure of how fast the partners come together. Higher therefore signals faster complex formation.

This assay concerns the target T1, KRS epitope peptide F4.
T1 peptide: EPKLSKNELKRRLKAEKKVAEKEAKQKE
Nature of the assay: SPR, Biacore T200, antibody on the chip, peptide F4 as analyte. How it is done:
The SPR experiment was performed using a Biacore T200 (GE Healthcare) equipped with a Series S sensor chip CM5 (GE Healthcare) at 25° C. After the antibody was immobilized on the chip using an amine coupling kit (GE Healthcare), the antigen was diluted 4 times in PBS solution in the range of 4.8 nM-1250 nM and flowed for 60 seconds. Thereafter, PBS was flowed for 300 seconds. The obtained data was analyzed with Biacore T200 Evaluation software v2.0 (GE Healthcare).
After that, PBS was flowed for 2400 seconds. The obtained data was analyzed with Biacore T200 Evaluation software v2.0 (GE Healthcare).

B1: N3-8-1 antibody (IgG) (antibody)
heavy: EVQLLESGGGLVQPGGSLRLSCAASGFTFSSYDMSWVRQAPGKGLEWVSAISPYSGRIYYADSVKGRFTISRDNSKNTLYLQMNSLRAEDTAVYYCARMALDFDYWGQGTLVTVSS[letters of human IgG1 constant region omitted]
light: QSVLTQPPSASGTPGQRVTISCTGSSSNIGSNYVTWYQQLPGTAPKLLIYDNSNRPSGVPDRFSGSKSGTSASLAISGLQSEDEADYYCSSFSDELGAYVFGGGTKLTVLGQPKAAPSVTLFPPSSEELQANKATLVCLISDFYPGAVTVAWKADSSPVKAGVETTTPSKQSNNKYAASSYLSLTPEQWKSHRSYSCQVTHEGSTVEKTVAPTECS
notes: Whole IgG1, N3-8 derivative; also called N3-8-1 IgG
For B1, binding was characterised by a dissociation constant (Kd) of 0.802 nM, the koff worked out at 0.000215 s⁻¹ and the kon came to 268000 M⁻¹ s⁻¹.
